Measurements published in paper PMC4336329 (PLoS ONE, 2015).
The whole screen tested about 310,000 compounds, of which about 2,200 (0.71%) showed an effect of 50% or more. The effect is printed as a negative number. Some of the results follow.

Molecular target: human ether-à-go-go-related gene (hERG) potassium channel (human, UniProt Q12809)
Test: primary screen, population patch clamp on CHO cells stably expressing hERG

Chain of human ether-à-go-go-related gene (hERG) potassium channel (Q12809 whole entry, looked up): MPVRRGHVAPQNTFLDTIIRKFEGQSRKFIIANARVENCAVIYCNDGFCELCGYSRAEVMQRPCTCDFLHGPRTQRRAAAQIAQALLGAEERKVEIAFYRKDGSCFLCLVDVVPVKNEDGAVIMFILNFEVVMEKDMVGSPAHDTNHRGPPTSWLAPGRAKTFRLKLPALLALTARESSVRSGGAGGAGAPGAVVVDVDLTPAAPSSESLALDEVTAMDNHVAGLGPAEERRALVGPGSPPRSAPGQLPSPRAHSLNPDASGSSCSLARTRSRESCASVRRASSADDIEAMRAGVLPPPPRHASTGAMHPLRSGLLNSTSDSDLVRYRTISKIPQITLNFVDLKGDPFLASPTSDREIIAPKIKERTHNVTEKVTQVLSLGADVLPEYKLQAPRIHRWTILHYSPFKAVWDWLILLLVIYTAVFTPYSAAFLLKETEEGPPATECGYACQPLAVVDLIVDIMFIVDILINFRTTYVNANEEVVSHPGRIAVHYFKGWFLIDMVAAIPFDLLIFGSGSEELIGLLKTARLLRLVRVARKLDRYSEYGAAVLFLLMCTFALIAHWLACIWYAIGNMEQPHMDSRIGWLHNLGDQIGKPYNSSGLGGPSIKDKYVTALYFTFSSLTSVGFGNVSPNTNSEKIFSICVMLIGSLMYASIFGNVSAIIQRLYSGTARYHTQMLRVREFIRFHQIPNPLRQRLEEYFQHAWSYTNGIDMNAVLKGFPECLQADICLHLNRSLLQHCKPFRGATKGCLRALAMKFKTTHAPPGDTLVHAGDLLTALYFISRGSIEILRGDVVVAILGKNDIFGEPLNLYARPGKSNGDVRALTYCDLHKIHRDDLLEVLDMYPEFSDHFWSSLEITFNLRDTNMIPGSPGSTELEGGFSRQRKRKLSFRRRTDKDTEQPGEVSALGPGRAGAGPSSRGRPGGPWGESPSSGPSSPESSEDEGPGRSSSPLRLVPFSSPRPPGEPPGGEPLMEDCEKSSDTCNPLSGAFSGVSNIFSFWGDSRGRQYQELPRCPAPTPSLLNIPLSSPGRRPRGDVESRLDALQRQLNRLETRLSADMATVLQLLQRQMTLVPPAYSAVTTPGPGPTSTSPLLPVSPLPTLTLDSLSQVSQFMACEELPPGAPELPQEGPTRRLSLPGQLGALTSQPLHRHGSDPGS

Going from COC(=O)c1ccccc1NC(=O)NCc1ccccc1 to Cc1nn(CC(=O)NCc2ccccc2)c(=O)c2ccccc12, the “hERG current change (%, negative = inhibition) at 1uM” value falls from 2.28% to -1.97%.

Compared with O=[N+]([O-])c1ccccc1N/N=C1\CC2CC=CC12 (centres unmarked), O=C(N/N=C/c1ccco1)c1cccc([N+](=O)[O-])c1 is lower in “hERG current change (%, negative = inhibition) at 1uM” value: 11.2% for the first, 7.35% for the second.

Compared with Cc1csc(NC(=O)CSc2nnc(C)n2Cc2ccco2)n1, COc1ccc(NC(=O)CSc2nnc(-c3ccoc3C)n2CC2CCCO2)cc1 (centres unmarked) is higher in “hERG current change (%, negative = inhibition) at 1uM” value: 7.95% for the first, 9.49% for the second.

Going from CCCS(=O)(=O)NCc1ccc2c(c1)cc(C)n2C to COc1ccc(CCN2C(=O)N[C@@H](C(C)C)C2=O)cc1, the “hERG current change (%, negative = inhibition) at 1uM” value rises from 2.92% to 11.9%.

Going from CC(C)C(OC(=O)c1cccs1)C(=O)NCc1ccco1 (centres unmarked) to O=C(COC(=O)CCNS(=O)(=O)c1ccc(Cl)cc1)NCc1ccco1, the “hERG current change (%, negative = inhibition) at 1uM” value falls from 12.2% to 2.55%.

Going from O=C(NCCCn1ccnc1)c1cc(-c2cccs2)on1 to CC(C)OCCCNC(=O)c1cc2c(=O)n(C)c3ccccc3c2n1C, the “hERG current change (%, negative = inhibition) at 1uM” value rises from -3.58% to 9.53%.

Compared with COc1ccc(CCNc2oc(COc3ccc(F)cc3)nc2C#N)cc1, Cc1ccc(NC(=O)Cc2ccc(F)cc2)cc1 is lower in “hERG current change (%, negative = inhibition) at 1uM” value: 19.2% for the first, 10.5% for the second.

Compared with O=C(CN1CCN(c2ccc(F)cc2)CC1)Nc1ccc2c(c1)OCCO2, NS(=O)(=O)c1ccc2nc(NC(=O)c3ccc4c(c3)OCCO4)sc2c1 is higher in “hERG current change (%, negative = inhibition) at 1uM” value: 14.1% for the first, 20.1% for the second.

First: COC(=O)C1=C(N)OC2=C(C(=O)CCC2)C1c1cccs1 (centres unmarked)
Second: C[C@H](NC(N)=O)C(=O)OCC(=O)NCc1cccs1
The “hERG current change (%, negative = inhibition) at 1uM” value of the first is higher: 2.11% for the first, 0.678% for the second.

First: CCN(CC)S(=O)(=O)c1ccc(NS(=O)(=O)c2ccc(F)cc2)cc1
Second: O=C(/C=C/c1ccc(Br)cc1)Nc1ccc(S(=O)(=O)Nc2ncccn2)cc1
The “hERG current change (%, negative = inhibition) at 1uM” value of the first is higher: 19.3% for the first, -4.6% for the second.

First: NC(=O)C1CCN(c2cc(N3CCOCC3)ccc2[N+](=O)[O-])CC1
Second: CCS(=O)(=O)N1CCN(c2cc3c(cc2[N+](=O)[O-])n(C)c(=O)n3C)CC1
The “hERG current change (%, negative = inhibition) at 1uM” value of the first is higher: 25.1% for the first, 14% for the second.

Compared with O=C(COC(=O)CCC(=O)c1ccc(Cl)cc1)NCCc1ccccc1, CN(C)S(=O)(=O)c1ccc(C(=O)NC(=O)CSc2ccccc2)cc1 is lower in “hERG current change (%, negative = inhibition) at 1uM” value: 9.92% for the first, 8.85% for the second.

Going from CCCNC(=O)NNC(=O)c1ccc(F)cc1 to O=C(NCCC(=O)N1CCN(c2ccccn2)CC1)c1ccc(Br)cc1, the “hERG current change (%, negative = inhibition) at 1uM” value falls from 2.91% to 2.75%.

Going from COc1ccc(-c2cc(OC)c3c(C)oc(C)c3c(=O)c2)cc1OC to COC(=O)c1c(C)n(-c2ccc(C)cc2)c2ccc(O)cc12, the “hERG current change (%, negative = inhibition) at 1uM” value falls from 15.5% to 3.23%.

First: CCn1c(C(=O)N2CCC(C(=O)NCc3cccs3)CC2)cc2sccc21
Second: CCn1c(=O)c2sccc2n2c(CCCC(=O)NC3CCN(Cc4ccccc4)CC3)nnc12
The “hERG current change (%, negative = inhibition) at 1uM” value of the first is lower: -20.7% for the first, 8.55% for the second.

First: CN(C(=O)c1cccnc1)c1nnc(-c2ccccn2)s1
Second: Clc1ccc(-c2nnc(-c3ccccc3)c(N3CCSCC3)n2)cc1
The “hERG current change (%, negative = inhibition) at 1uM” value of the first is higher: 11% for the first, 10.6% for the second.

Compared with COCCCNC(=O)C(Cc1ccccc1)NS(=O)(=O)c1ccc2c(c1)c(=O)n(C)c(=O)n2C (centres unmarked), CN(CC(=O)NC1CCCc2ccccc21)S(=O)(=O)c1ccc2c(c1)c(=O)n(C)c(=O)n2C (centres unmarked) is higher in “hERG current change (%, negative = inhibition) at 1uM” value: 1.74% for the first, 8.89% for the second.

Compared with Cc1cccc(-n2c(O)c(C=Nc3cc(O)ccc3C)c3ccccc3c2=O)n1, Cc1ccc(C(=O)O)cc1NS(=O)(=O)c1ccc2ccccc2c1 is higher in “hERG current change (%, negative = inhibition) at 1uM” value: 7.6% for the first, 8.23% for the second.

First: Cc1cc(OCC(=O)N2CCN(c3ccccn3)CC2)c(C)cc1Br
Second: CC1Cc2ccccc2N1C(=O)COc1nc2ccccc2nc1N1CCOCC1 (centres unmarked)
The “hERG current change (%, negative = inhibition) at 1uM” value of the first is lower: 3.11% for the first, 7.15% for the second.

First: COc1ccc(NC(=O)c2ccc(-c3ccc(C(C)=O)cc3)o2)cn1
Second: COc1ccccc1NC(=O)c1ccc(NS(=O)(=O)c2c(C)noc2C)cc1
The “hERG current change (%, negative = inhibition) at 1uM” value of the first is lower: 10.4% for the first, 11.6% for the second.

Going from CCN1C(=O)[C@H]2[C@@H](c3ccc(-c4ccc(F)cc4)c(OC)c3)N[C@@](CC(C)C)(C(=O)OC)[C@H]2C1=O.O=C(O)C(F)(F)F to CCN(CC(=O)NCc1ccc(F)cc1)Cc1nc2ccccc2c(=O)[nH]1, the “hERG current change (%, negative = inhibition) at 1uM” value falls from 7.34% to -8.93%.

First: Cc1cc(NC(=O)CCN2C(=O)C3C4CCC(C4)C3C2=O)cc(C)c1Br (centres unmarked)
Second: CC(=O)Nc1cccc(NC(=O)C2CCCN2C(=O)Nc2cccc(C)c2)c1 (centres unmarked)
The “hERG current change (%, negative = inhibition) at 1uM” value of the first is lower: -7.77% for the first, 6.47% for the second.

First: O=C1C=C(c2ccc(F)cc2OCc2ccccc2)C[C@@H](c2ccc3c(c2)OCO3)C1
Second: CC(C)C(NC(=O)CN(c1ccc2c(c1)OCCO2)S(=O)(=O)c1ccccc1)C(C)C
The “hERG current change (%, negative = inhibition) at 1uM” value of the first is higher: 11.3% for the first, -2.43% for the second.

Compared with Cc1cccc(CN2CCCC(C(=O)c3ccc(C(F)(F)F)cc3)C2)n1 (centres unmarked), O=S(=O)(c1ccc(F)cc1)N1CCCCC1c1cccnc1 (centres unmarked) is higher in “hERG current change (%, negative = inhibition) at 1uM” value: -40% for the first, 10.1% for the second.

First: Cc1nnc(Oc2ccc([N+](=O)[O-])cc2)c2ccccc12
Second: Cc1ccc(-n2c(=O)c(C#N)cc3c(=O)n4ccccc4nc32)cc1
The “hERG current change (%, negative = inhibition) at 1uM” value of the first is higher: 4.88% for the first, 2.63% for the second.

Compared with CCC(=O)N(CCC(c1ccco1)c1ccccc1OC)Cc1cccs1 (centres unmarked), COc1ccccc1-c1cc2nc(C)c(CCC(=O)NCc3ccco3)c(C)n2n1 is higher in “hERG current change (%, negative = inhibition) at 1uM” value: -31.3% for the first, -3.36% for the second.

First: CC(=O)c1c(C)n(-c2ccc(Cl)cc2)c2ccc(O)cc12
Second: O=C(CSc1nccc(=O)[nH]1)NCc1ccc(Cl)cc1
The “hERG current change (%, negative = inhibition) at 1uM” value of the first is higher: 16.5% for the first, 5.93% for the second.

First: COC(=O)C1=C(C(=O)OC)[C@@H]2N(Cc3ccccc3)c3ccccc3[C@@]23C[C@@H](C(=O)OC)N(C(=O)COCc2ccccc2)C3=N1
Second: COc1ccc(CC2(CO)CCN(Cc3cnn(-c4ccccc4)c3)CC2)cc1
The “hERG current change (%, negative = inhibition) at 1uM” value of the first is higher: 12.2% for the first, -57.2% for the second.

First: CC(=O)NC(Cc1ccc(C)cc1)C(=O)NC1CCN(C(=O)c2cnccn2)CC1 (centres unmarked)
Second: CCN1CCN(C(=O)c2ccc(CS(=O)Cc3ccc(C)cc3)o2)CC1 (centres unmarked)
The “hERG current change (%, negative = inhibition) at 1uM” value of the first is lower: -0.512% for the first, 15.9% for the second.

First: NC(=O)CC(NC(=O)OCc1ccccc1)C(=O)O (centres unmarked)
Second: CCOc1ccccc1NC(C)C(=O)NC(=O)NC1CCCCC1 (centres unmarked)
The “hERG current change (%, negative = inhibition) at 1uM” value of the first is lower: -11.6% for the first, -5.05% for the second.

First: CC(C)(C)c1cc(C(=O)O)n(Cc2ccc(Cl)cc2Cl)n1
Second: O=C(Nc1ccccc1)Nc1ccc(Cl)nc1Cl
The “hERG current change (%, negative = inhibition) at 1uM” value of the first is lower: 4.47% for the first, 15.6% for the second.

Going from O=C(NCCN1CCOCC1)c1ccc(CS(=O)(=O)c2ccc(Cl)cc2)o1 to COc1ccc(-c2ccc(CNCCCN3CCOCC3)o2)cc1Cl.Cl, the “hERG current change (%, negative = inhibition) at 1uM” value rises from 8.27% to 12.8%.

Going from COc1cc(NC(=O)C(=O)N2CCN(C)CC2)c(OC)cc1Cl to COc1ccccc1NC(=O)CN(c1ccc(C23CC4CC(CC(C4)C2)C3)cc1)S(C)(=O)=O, the “hERG current change (%, negative = inhibition) at 1uM” value falls from 14.1% to 1.79%.

Going from Cc1ccsc1/C=N/NC(=O)CN1CCN(Cc2ccccc2)CC1 to COc1cccc(NC(=O)CN2C(=O)C(c3ccc(C)cc3)=NC23CCCCCC3)c1, the “hERG current change (%, negative = inhibition) at 1uM” value rises from 2.4% to 8%.

Compared with CC(C)OCC(O)CCc1n[nH]c(=S)n1-c1ccccc1 (centres unmarked), Cc1cc(=O)[nH]c(Nc2c(C)n(C)n(-c3ccccc3)c2=O)n1 is lower in “hERG current change (%, negative = inhibition) at 1uM” value: 16.9% for the first, 3.24% for the second.

Compared with CCc1nc2sc3c(=O)[nH]cnc3c2c2c1CSC(C)(C)C2, COc1ccc(-c2nc3c(c(SCC(=O)N4CCCC4)n2)COC(C)(C)C3)cc1 is lower in “hERG current change (%, negative = inhibition) at 1uM” value: 10.4% for the first, 4.96% for the second.

Compared with Cc1cc(/C=N/Nc2nc(N)ncc2[N+](=O)[O-])c(C)n1-c1cccc(C(F)(F)F)c1, Cc1ccc(/C=N/Nc2ccc3c(C(F)(F)F)cc(C(F)(F)F)nc3n2)cc1 is lower in “hERG current change (%, negative = inhibition) at 1uM” value: 21.2% for the first, 15.3% for the second.

Going from Cc1c(C(=O)N2CCCCC2)c(S(=O)(=O)NCCc2ccc(S(N)(=O)=O)cc2)c(C)n1C to COC(=O)C1=C(C)NC(=O)/C1=C/c1ccc(CNS(=O)(=O)c2ccc(C)cc2)o1, the “hERG current change (%, negative = inhibition) at 1uM” value rises from -0.839% to 11.1%.

First: Cc1cc(C)nc(NC(=O)c2c(-c3ccccc3Cl)noc2C)n1
Second: CC(C)NC1=C(Cl)C(=O)c2ccccc2C1=O
The “hERG current change (%, negative = inhibition) at 1uM” value of the first is lower: 12.4% for the first, 15.1% for the second.

Going from COc1ccc(-c2nnc(SCC(=O)/C(C#N)=C(\C)N)o2)cc1 to CC1(C)Cc2cccc(OCC(=O)Nc3cccnc3Cl)c2O1, the “hERG current change (%, negative = inhibition) at 1uM” value rises from -4.9% to 4.96%.

Going from CCc1cc2c3c(c1)C1(C(=O)N3C(C)(C)CC2C)C(C#N)=C(N)N2C(=C1C#N)Nc1ccccc12 (centres unmarked) to CCc1cccc(NC(=S)N(CCN(C)C)C(C)c2ccncc2)c1 (centres unmarked), the “hERG current change (%, negative = inhibition) at 1uM” value falls from 3.45% to -5.84%.

First: O=C(CSc1nc(C(F)(F)F)cc(=O)[nH]1)N1CCCC1
Second: CCS(=O)(=O)N1CCCC(C(=O)NCc2ccc3c(c2)OCO3)C1 (centres unmarked)
The “hERG current change (%, negative = inhibition) at 1uM” value of the first is higher: 21.9% for the first, 7.19% for the second.

Compared with CN(C(=O)CC1C(=O)NCCN1Cc1cccc(F)c1F)C1CC(C)(C)NC(C)(C)C1 (centres unmarked), C=CCN(c1ccc(C(=O)Nc2cccc([N+](=O)[O-])c2)cc1)S(C)(=O)=O is lower in “hERG current change (%, negative = inhibition) at 1uM” value: 24.2% for the first, 11.6% for the second.
